Experimental data taken from paper PMC4336329 (PLoS ONE, 2015).
Hit rate of the full screen: of about 310,000 compounds, about 14,000 (4.5%) showed an effect of 50% or more. Effects have a minus sign here. The list shows a part of the results.

The compounds below were run against human ether-à-go-go-related gene (hERG) potassium channel (human, UniProt Q12809) (assay: primary screen, population patch clamp on CHO cells stably expressing hERG).
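Note: peak tail current of the secondary pulse compared with the same well before compound.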

human ether-à-go-go-related gene (hERG) potassium channel, sequence (Q12809 whole entry, looked up): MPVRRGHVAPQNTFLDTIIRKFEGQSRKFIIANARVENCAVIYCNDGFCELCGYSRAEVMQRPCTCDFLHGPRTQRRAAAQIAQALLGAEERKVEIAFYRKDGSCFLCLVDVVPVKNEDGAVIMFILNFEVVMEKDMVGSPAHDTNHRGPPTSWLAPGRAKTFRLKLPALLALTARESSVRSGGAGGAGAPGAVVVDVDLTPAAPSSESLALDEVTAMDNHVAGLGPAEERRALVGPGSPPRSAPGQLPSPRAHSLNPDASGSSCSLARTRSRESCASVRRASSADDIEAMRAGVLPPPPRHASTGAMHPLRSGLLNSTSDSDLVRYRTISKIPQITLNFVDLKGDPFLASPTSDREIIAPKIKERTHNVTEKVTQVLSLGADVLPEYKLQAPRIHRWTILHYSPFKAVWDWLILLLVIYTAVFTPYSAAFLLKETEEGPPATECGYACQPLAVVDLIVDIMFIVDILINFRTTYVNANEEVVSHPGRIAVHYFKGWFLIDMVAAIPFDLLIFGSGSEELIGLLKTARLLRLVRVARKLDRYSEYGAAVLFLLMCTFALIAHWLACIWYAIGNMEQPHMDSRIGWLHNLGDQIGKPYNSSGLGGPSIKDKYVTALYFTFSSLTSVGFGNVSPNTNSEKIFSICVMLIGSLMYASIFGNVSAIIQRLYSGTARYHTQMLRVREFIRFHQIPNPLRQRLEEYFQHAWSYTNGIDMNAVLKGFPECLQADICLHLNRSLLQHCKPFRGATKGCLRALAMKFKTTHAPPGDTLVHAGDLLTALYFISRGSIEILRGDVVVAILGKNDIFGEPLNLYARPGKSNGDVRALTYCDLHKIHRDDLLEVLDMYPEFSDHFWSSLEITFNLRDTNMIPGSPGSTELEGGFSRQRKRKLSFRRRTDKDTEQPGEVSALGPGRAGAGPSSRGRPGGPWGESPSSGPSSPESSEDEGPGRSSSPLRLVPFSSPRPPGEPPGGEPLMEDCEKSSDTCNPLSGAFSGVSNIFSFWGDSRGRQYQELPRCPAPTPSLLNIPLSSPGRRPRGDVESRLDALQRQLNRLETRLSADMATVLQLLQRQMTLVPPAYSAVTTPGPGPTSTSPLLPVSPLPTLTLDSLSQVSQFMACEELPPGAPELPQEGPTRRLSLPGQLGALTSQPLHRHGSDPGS

| Compound | hERG current change (%, negative = inhibition) at 10uM [%] |
| --- | --- |
| CCNc1ccc(S(=O)(=O)N(C)C)cc1NCC(=O)Nc1ccccc1F | -32.2 |
| O=C(NCc1ccco1)c1ccc([N+](=O)[O-])o1 | 8.89 |
| C=CCOc1ccn(C)c(=O)n1 | 2.89 |
| O=C(NCCSCc1ccco1)c1ccc(=O)[nH]c1 | 5.5 |
| O=C(CCN1C(=O)[C@@H]2Cc3ccccc3CN2C1=O)NCCc1ccccc1 | -36.3 |
| COc1ccc(-c2nc(C#N)c(NC(C)c3ccccc3)o2)cc1OC (stereo not drawn) | 4.63 |
| O=C(O)c1cccc([N+](=O)[O-])c1C(=O)Nc1cccc2ccccc12 | 21.9 |
| O=C(NC(=S)NNC(=O)c1ccccc1O)c1cccc([N+](=O)[O-])c1 | 26.2 |
| CC(C)=CCCC1(C)C=Cc2c(c(C)cc3c2[nH]c2cc(O)ccc23)O1 (stereo not drawn) | 16.7 |
| O=C(NCCN1CCCCC1)c1ccc(Cl)nc1Cl | 1.18 |
| O=Cc1cn(-c2ccccc2)nc1-c1ccccn1 | 3.51 |
| CCc1ccc(NC(=O)CSc2nnc(Cn3c(=O)sc4ccccc43)n2C)cc1 | -2.33 |
| Cn1c(O)c(N=NC(=O)c2cc(-c3cccs3)nc3ccccc23)c2ccccc21 | 24.7 |
| CC(C)c1cccc(C(C)C)c1NC(=O)c1ccccc1 | 26 |
| C=C(C)CSc1nnc(-c2cc(OC)c(OC)c(OC)c2)n1N | 15.6 |
| Fc1ccc(Nc2c3c(nc4ccccc24)CCC3)cc1 | -64.3 |
| O=C(Nc1cccc(F)c1)C1CCN(c2nnnn2-c2ccccc2)CC1 | -11.3 |
| Cc1ccccc1-n1nc2c(c1NC(=O)c1ccc(Br)o1)CSC2 | -7.03 |
| CC1(C)CC(=O)C=C(C(=O)N2CCCC(C(=O)c3cccc(C(F)(F)F)c3)C2)O1 (stereo not drawn) | -25.5 |
| Cc1cc(C)cc(NC(=O)CCN2C(=O)c3ccccc3C2=O)c1 | 17 |
| Cc1ccc(/C(N)=N/OC(=O)c2ccc(C)cc2Cl)cc1 | -20.4 |
| CC(Oc1ccccc1C(N)=O)C(=O)Nc1ccc(S(=O)(=O)N2CCCC2)cc1 (stereo not drawn) | -32.3 |

| Compound | hERG current change (%, negative = inhibition) at 10uM [%] |
| --- | --- |
| O=C(COC(=O)CCc1nc2ccccc2c(=O)[nH]1)Nc1ccc(OC(F)(F)F)cc1 | -5.93 |
| O=S(=O)(Nc1cccc(S(=O)(=O)N2CCOCC2)c1)c1cccs1 | 15.7 |
| O=C(/C=C/c1cccnc1)c1cc(F)ccc1O | -5.38 |
| Cc1onc(-c2c(Cl)cccc2Cl)c1C(=O)N1CCOCC1 | 12 |
| CCN1CCC(=NNC(=O)CC23CC4CC(CC(C4)C2)C3)CC1 | 12 |
| CCC(C)(C)NC(=O)Cn1c(-c2ccccc2)cc(C(C)=O)c1C | -14.1 |
| COc1ccc(S(=O)(=O)N2CCCOC2CNC(=O)C(=O)NCCc2ccco2)cc1OC (stereo not drawn) | 4.35 |
| COc1ccc(/C=N/n2cncn2)cc1Cn1nc(C)c([N+](=O)[O-])c1C | -53.6 |
| CCc1ccc2nc(N(CCCN(C)C)C(=O)c3ccc(C(=O)c4ccccc4)cc3)sc2c1.Cl | -12.5 |
| COc1ccccc1CNC(=O)CN1C(=O)N(C)C2(CCCCC2)C1=O | 5.91 |
| CCN(CC)C(=O)CN(c1cccc(Br)c1)S(C)(=O)=O | 7.03 |
| COC(=O)c1cc(CSc2nc3ccccc3[nH]2)oc1C | 18.3 |
| Cc1occc1C(=O)NCCc1ccc(Cl)cc1 | 4.24 |
| COc1ccc(-n2c(C)cc(C(=O)CSc3nnc(-c4ccoc4C)n3C)c2C)cc1 | -31.1 |
| O=C(CCCN1C(=O)c2ccccc2C1=O)Nc1c(C(=O)C2CC2)oc2ccccc12 | 16.8 |
| CCOC(=O)CN(C(=O)CSc1nnc(C)n1-c1ccccc1)c1ccccc1 | 6.79 |
| COc1ccc(-c2cn(Cc3ccc(C(=O)c4ccccc4)cc3)nn2)cc1 | -3.2 |
| CC(=O)Nc1ccc(S(=O)(=O)NNC(=O)C(=O)NNc2ccccn2)cc1 | 16.4 |
| CC1CCCN(CC(O)COc2ccc(Cl)cc2)C1.Cl (stereo not drawn) | -69.2 |
| O=C(c1ccco1)N1CCN(C(=O)C2Cc3ccccc3CN2S(=O)(=O)c2ccc(F)cc2)CC1 (stereo not drawn) | -70.6 |
| COC(=O)c1ccc(C2/C(=C(/O)c3ccc(OC)cc3)C(=O)C(=O)N2CC2CCCO2)cc1 (stereo not drawn) | 13.4 |
| COc1cccc(COC(=O)c2c(C)nn(-c3ccccc3)c2Cl)c1OC | 12.2 |

| Compound | hERG current change (%, negative = inhibition) at 10uM [%] |
| --- | --- |
| CC(OC(=O)c1cccnc1Cl)C(=O)Nc1ccc2c(c1)OCCO2 (stereo not drawn) | -2.19 |
| COc1ccc(N2CCN(C(=O)C3CCCN(S(=O)(=O)c4c(C)noc4C)C3)CC2)cc1 (stereo not drawn) | -59.9 |
| CCn1cc(C(=O)NCCCOC(C)C)c(=O)c2cc(S(=O)(=O)N3CCCC3)ccc21 | -19.9 |
| Cn1c(=O)[nH]c(=O)c2[nH]c(CN3CCN(Cc4ccccc4)CC3)nc21 | -7.24 |
| O=C(O/N=C(/c1ccccc1)c1ccncc1)c1cccc(F)c1 | 12.3 |
| Cc1cc(C)c(C)c(S(=O)(=O)N2CCC(C(=O)NCCCN3CCCC3=O)CC2)c1C | -70 |
| CCCCOC(=O)Nc1ccc(S(=O)(=O)Nc2onc(C)c2C)cc1 | 23.1 |
| CCCCC(=O)Nc1ccc(C(=O)Nc2cc(C(F)(F)F)ccc2Cl)cc1 | 25.6 |
| N#Cc1c(N(CCO)CCO)nc(N)c2c(N)nc3c(c12)CC(=O)N3Cc1cccs1 | -38.2 |
| CCC1(C)Cc2ccccc2-c2nc(NCCO)n(-c3ccccc3)c(=O)c21 (stereo not drawn) | -28.9 |
| CN(CC(=O)Nc1ccc(Cl)c(C(F)(F)F)c1)C(=O)CNC(=O)C1CCCCC1 | -31.5 |
| COc1cc(C=C2C(=O)NC(=O)NC2=O)ccc1O | 17.5 |
| CCCn1c(=O)c2[nH]c(-c3ccc(S(=O)(=O)O)cc3)nc2n(CCC)c1=O | 15.6 |
| O=C(CCN1CCOCC1)c1ccc(Cl)cc1 | 28.3 |
| CCOC(=O)c1ccc(-n2c(CN3CCN(CC)CC3)nc3ccc([N+](=O)[O-])cc3c2=O)cc1 | -55 |
| COc1cccc(NC(=S)NNC(=O)Cn2nc(C(F)F)cc2C(F)F)c1 | 17.4 |
| O=C(Nc1ccccc1C(=O)NC1CCCC1)NC1CCCC1 | 7.05 |
| Cc1ccc(-c2cc(C(=O)Nc3c(C)n(C)n(-c4ccccc4)c3=O)[nH]n2)c(O)c1C | -6.25 |
| COc1ccc(OCCOc2cccc(C=C3C(=O)NC(=O)NC3=O)c2)cc1 | 17.3 |
| COCCNC(=O)Cc1c(C)c2c(cc(C)c3c(C)coc32)oc1=O | -2.11 |
| O=c1cc(-c2ccc(O)c(O)c2)oc2cc(O)cc(O)c12 | 9.88 |
| O=C(NCc1ccccn1)C1CCN(S(=O)(=O)c2ccccc2F)CC1 | -8.17 |

| Compound | hERG current change (%, negative = inhibition) at 10uM [%] |
| --- | --- |
| CN(CC(=O)Nc1ccc(Cl)c(C(F)(F)F)c1)C(=O)CCCNC(=O)c1ccc(Cl)cc1 | -52.2 |
| O=C(c1nc2ccccc2s1)N1CCN(c2ccccn2)CC1 | -30.9 |
| CCOC(=O)c1c(N)sc2c1CCCC2 | -5.89 |
| COC(=O)Cc1ccc(NC(=S)NCc2ccccc2OC)cc1 | 12 |
| Cn1nc(C(=O)NC2CCCC2)c2ccccc2c1=O | 1.63 |
| Cc1ccc(S(=O)(=O)Nc2nc(N)n(-c3ccccc3)n2)cc1 | 21.2 |
| COc1cccc(/C=C2\NC(=O)NC2=O)c1O | 17.9 |
| CCc1cc(C(=O)c2ccc(OC)cc2)c(NC(=O)CN2CCCCC2)s1 | 5 |
| Cc1nc2ccccc2c2nc(NC(=O)Cc3ccccc3)nn12 | -14.7 |
| CCOC(=O)CCCNC(=O)CSc1nnc(-c2ccccc2)c(-c2ccccc2)n1 | -48.8 |
| COc1cc(/C=N/NC(=O)Cn2cnc3c2c(=O)n(C)c(=O)n3C)ccc1O | 18.1 |
| Cc1nc2ccc(Cl)cc2c(=O)n1-c1ccccc1Cl | 5.06 |
| COc1cccc(CC(=O)N2CCN(Cc3cccc(Cl)c3)CC2)c1 | -28.3 |
| Cc1c(CN(C)C(=O)CSc2nc(-c3ccco3)cc(C(F)(F)F)n2)cnn1C | -13.3 |
| CC/C(=N\N1CCCCCC1)c1c(O)n(-c2ccccc2C)c(=O)[nH]c1=O | -15.7 |
| CC(C)c1c(O)c2c(n(-c3ccccc3)c1=O)CCCC2 | -6.37 |
| COc1ccc(-c2csc(Nc3ccc(S(=O)(=O)Nc4cc(C)on4)cc3)n2)cc1 | 19.7 |
| COc1ccc(C(=O)NC2CCCN(Cc3ccccc3F)C2)c(OC)c1OC (stereo not drawn) | -0.0609 |
| Cn1c(C(=O)NCc2cccs2)cc2c(=O)n(C)c3ccccc3c21 | 4.8 |
| COC(=O)c1ccccc1NC(=O)c1cc2ncc(Br)cn2n1 | 6.87 |
| Cc1cccc2cc(/C=N/Nc3ccc(C(=O)O)cc3)c(Cl)nc12 | 6.62 |
